Experimental data as given in article PMC6019326 (Nature medicine, 2017).

Molecular target: T1, recombinant APOL1 G0 protein (His-tag fused, reference allele) (human, UniProt O14791-1 28-398)
T1 sequence (looked up): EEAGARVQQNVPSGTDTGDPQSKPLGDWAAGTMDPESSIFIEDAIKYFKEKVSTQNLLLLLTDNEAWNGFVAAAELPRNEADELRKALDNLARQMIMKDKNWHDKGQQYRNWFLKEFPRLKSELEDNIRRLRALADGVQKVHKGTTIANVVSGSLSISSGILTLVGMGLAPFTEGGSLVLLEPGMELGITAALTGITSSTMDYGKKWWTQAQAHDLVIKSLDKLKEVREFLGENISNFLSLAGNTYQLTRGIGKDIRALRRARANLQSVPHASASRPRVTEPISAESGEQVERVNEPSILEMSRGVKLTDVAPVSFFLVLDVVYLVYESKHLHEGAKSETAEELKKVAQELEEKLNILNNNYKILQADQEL
Test: SPR

KD for suPAR in the presence of αvβ3 integrin (5 nM) with Mn2+: 665 nM
B1: human suPAR (soluble urokinase plasminogen activator receptor), recombinant (receptor)
chain: not shown
